From PMC12796746
These are yes or no findings as the source states them, for the method shown.

The chains behind the UniProt entries cited, without tags or fusion partners.
UniProt Q5XKR9: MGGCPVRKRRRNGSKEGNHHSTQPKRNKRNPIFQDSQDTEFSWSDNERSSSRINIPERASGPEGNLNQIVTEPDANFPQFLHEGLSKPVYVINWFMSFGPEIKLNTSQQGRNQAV

Key:
Assay in all cases: peptide or protein array; HuProt Human Proteome Microarray v2.0, full-length human proteins spotted in duplicate; V5-tagged TRPV4 protein in solution at 1 μM, 1 h at 4 °C, 150 mM NaCl, 2.7 mM KCl, 25 mM Trizma base, 0.05% Tween-20, pH 7.4; detected with Alexa Fluor 647 anti-V5; hit: z-score >= 2 (N terminus: both of 2 slides; ARD constructs: at least 2 of 3 slides); both purified
Protein FAM104B (human) = Protein FAM104B (human) (UniProt Q5XKR9)
[1] = biological target: T1, Huntingtin-interacting protein K (human) (UniProt Q9NX55)
T1 sequence: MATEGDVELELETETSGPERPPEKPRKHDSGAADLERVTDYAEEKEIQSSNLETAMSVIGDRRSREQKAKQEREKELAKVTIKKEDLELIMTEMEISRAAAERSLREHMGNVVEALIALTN

[2] = biological target: T2, DNA fragmentation factor subunit alpha (human) (UniProt O00273)
T2 sequence: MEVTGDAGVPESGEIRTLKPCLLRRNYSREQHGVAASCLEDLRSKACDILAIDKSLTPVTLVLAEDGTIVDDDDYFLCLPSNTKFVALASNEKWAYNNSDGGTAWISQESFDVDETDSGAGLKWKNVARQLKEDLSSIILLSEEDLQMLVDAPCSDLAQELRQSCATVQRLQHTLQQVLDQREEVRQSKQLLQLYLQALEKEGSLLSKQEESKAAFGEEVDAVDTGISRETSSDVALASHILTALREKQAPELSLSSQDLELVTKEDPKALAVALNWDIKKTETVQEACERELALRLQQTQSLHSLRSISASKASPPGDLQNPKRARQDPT

[3] = biological target: T3, RAB6-interacting golgin (human) (UniProt Q5T7V8)
T3 sequence: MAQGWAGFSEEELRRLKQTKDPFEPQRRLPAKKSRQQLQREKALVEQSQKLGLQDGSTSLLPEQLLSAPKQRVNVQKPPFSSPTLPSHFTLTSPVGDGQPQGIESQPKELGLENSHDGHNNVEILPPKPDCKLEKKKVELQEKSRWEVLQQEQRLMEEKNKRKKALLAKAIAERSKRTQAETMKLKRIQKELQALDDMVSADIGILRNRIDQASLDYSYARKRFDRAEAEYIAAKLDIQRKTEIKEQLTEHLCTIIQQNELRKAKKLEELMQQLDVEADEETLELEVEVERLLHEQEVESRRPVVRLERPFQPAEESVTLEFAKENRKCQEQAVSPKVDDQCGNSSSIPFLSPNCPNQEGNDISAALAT

[4] = biological target: T4, ADP-ribosylation factor-like protein 10 (human) (UniProt Q8N8L6)
T4 sequence: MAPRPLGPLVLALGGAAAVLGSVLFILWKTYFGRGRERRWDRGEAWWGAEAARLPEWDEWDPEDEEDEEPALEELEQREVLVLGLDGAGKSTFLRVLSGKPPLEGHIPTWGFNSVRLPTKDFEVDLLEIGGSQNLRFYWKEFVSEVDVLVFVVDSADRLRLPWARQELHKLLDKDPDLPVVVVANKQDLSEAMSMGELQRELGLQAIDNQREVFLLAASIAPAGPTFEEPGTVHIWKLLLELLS

Measured: binding

TRPV4^R269C-ARD (from UniProt Q9HBA0 149-397) (domain or fragment)
no binding (tested: 1 μM): Protein FAM104B (human) | [1] | [2] | [3] | [4]

TRPV4^R315W-ARD (from UniProt Q9HBA0 149-397) (domain or fragment)
no binding (tested: 1 μM): Protein FAM104B (human) | [1] | [2] | [3] | [4]
